In the supplement of paper PMC12462457:
Structures can show the parent of a compound that is named as a salt. ± gives the standard deviation of the averaged measurements. Some of the results follow.

Tested on: OVCAR8
Experiment: cell count relative to DMSO vehicle (fold change); OVCAR8 is a high-grade serous ovarian cancer line and CX-5461 an RNA polymerase I inhibitor; higher = more surviving senescent cells (less killing)
Conditions: senescence inducer: CX-5461 3 µM 48 h, then 6 d recovery (CX senescent), exposure time 24 h

Row | SMILES | cell count (compound dose 1 µM) | cell count (compound dose 5 µM)
1 | CC(C)C[C@H](NC(=O)[C@@H](COC(C)(C)C)NC(=O)[C@H](Cc1ccc(O)cc1)NC(=O)[C@H](CO)NC(=O)[C@H](Cc1c[nH]c2ccccc12)NC(=O)[C@H](Cc1cnc[nH]1)NC(=O)[C@@H]1CCC(=O)N1)C(=O)N[C@@H](CCCNC(=N)N)C(=O)N1CCC[C@H]1C(=O)NNC(N)=O [Goserelin (acetate)] | 1.18 ± 0.16 | 1.15 ± 0.13
2 | Cc1cccc(NC(=O)Nc2ccc(-c3csc4ncnc(N)c34)cc2)c1 | 1.03 ± 0.042 | 0.944 ± 0.095
3 | C/C=C1/[C@H](O[C@@H]2O[C@H](CO)[C@@H](O)[C@H](O)[C@H]2O)OC=C(C(=O)OC)[C@H]1CC(=O)OCCc1ccc(O)c(O)c1 [Oleuropein] | 1.12 ± 0.072 | 1.18 ± 0.15
4 | CC(C)(C)Cn1c(N)nc2ccc(-c3[nH]c(C(C)(C)C)nc3-c3ccc(F)cc3)nc21 | 1.15 ± 0.22 | 1.01 ± 0.21
5 | COc1ccc(C(=O)CC2(O)C(=O)Nc3c(Cl)ccc(Cl)c32)cc1 (stereo unspecified) | 1.13 ± 0.37 | 1.21 ± 0.21
6 | CC(C)=CC(O)C/C(C)=C/COc1c2ccoc2cc2oc(=O)ccc12 (stereo unspecified) [Notopterol] | 1.02 ± 0.076 | 0.897 ± 0.12
7 | CC(C)N(C(=O)c1cc(F)ccc1Oc1cncnc1N1CC2(CCN(CC3CCC(NS(C)(=O)=O)CC3)CC2)C1)C(C)C (stereo unspecified) | 1.14 ± 0.25 | 1.16 ± 0.054
8 | CCCCC[C@H](O)/C=C/[C@@H]1[C@@H](C/C=C\CCCC(=O)O)[C@@H](O)C[C@H]1O [Dinoprost (tromethamine salt)] | 1.14 ± 0.16 | 1.09 ± 0.24
9 | O=C(Nc1ccc(OC(F)(F)F)cc1)c1sccc1NCc1ccnc2ccccc12 | 1.21 ± 0.15 | 1.18 ± 0.081
10 | CCCCCCCCCCCCCCCCCCOP(=O)([O-])OC1CC[N+](C)(C)CC1 [Perifosine (KRX-0401)] | 1.16 ± 0.1 | 1.14 ± 0.038
11 | N#Cc1ccc(-c2c(-c3ncn[nH]3)sc(N3CCOCC3)c2C#N)c(F)c1 | 1.15 ± 0.095 | 1.05 ± 0.027
12 | COc1cc2c(cc1OC)[C@@H](Cc1ccc(Oc3cc(C[C@@H]4c5cc(OC)c(OC)cc5CCN4C)ccc3O)cc1)N(C)CC2 [Dauricine] | 1.21 ± 0.26 | 1.5 ± 0.27
13 | CC(=O)O[C@H](CC=C(C)C)C1=CC(=O)c2c(O)ccc(O)c2C1=O [Acetylshikonin] | 1.19 ± 0.18 | 1.14 ± 0.22
14 | COc1cc(/C=C/C(O)=C/C(=O)/C=C/c2ccc(O)cc2)ccc1O [Demethoxycurcumin] | 1.1 ± 0.22 | 1.01 ± 0.15
15 | CC(C)[C@H]1C(=O)N[C@@H](CCCNC(=N)N)C(=O)NCC(=O)N[C@@H](CC(=O)O)C(=O)N[C@H](Cc2ccccc2)C(=O)N1C [Cilengitide] | 0.0885 ± 0.054 | 0.0365 ± 0.0021
16 | O=C(c1cccc(Cl)c1F)N1CCN(Cc2cccc(Nc3nccs3)n2)CC1 | 1.18 ± 0.16 | 0.893 ± 0.1
17 | COc1cc(-c2coc3cc(O)c(OC)c(O)c3c2=O)cc(O)c1OC | 0.988 ± 0.05 | 1.07 ± 0.26
18 | COC1=C(OC)C(=O)C(CCCCCCCCCCO)=C(C)C1=O | 0.992 ± 0.25 | 0.71 ± 0.2
19 | O=C(Nc1c[nH]nc1-c1nc2ccc(CN3CCOCC3)cc2[nH]1)NC1CC1 | 0.587 ± 0.046 | 0.317 ± 0.072
20 | CC(C)CC(=O)Nc1n[nH]c2c1CN(C(=O)C1CCN(C)CC1)C2(C)C | 1.06 ± 0.12 | 0.932 ± 0.21
21 | CC(=O)N1c2ccc(-c3ccc(C(=O)O)cc3)cc2[C@H](Nc2ccc(Cl)cc2)C[C@@H]1C | 1.02 ± 0.027 | 0.892 ± 0.04

Row | SMILES | cell count (compound dose 1 µM) | cell count (compound dose 5 µM)
22 | Nc1nc(F)nc2c1ncn2[C@@H]1O[C@H](CO)[C@@H](O)[C@@H]1O [Fludarabine] | 0.935 ± 0.052 | 1 ± 0.22
23 | Nc1nc(Cl)nc2c1ncn2[C@@H]1O[C@H](CO)[C@@H](O)[C@@H]1F [Clofarabine] | 1.04 ± 0.15 | 1.05 ± 0.21
24 | CN1CC[C@H](c2c(O)cc(O)c3c(=O)cc(-c4ccccc4Cl)oc23)[C@H](O)C1 [Flavopiridol] | 0.84 ± 0.055 | 0.927 ± 0.12
25 | O=C(Nc1cccc(Nc2cc(Nc3cccc(C(F)(F)F)c3)ncn2)c1)C1CC1 | 1.04 ± 0.11 | 1.16 ± 0.22
26 | CCOC(=O)c1cnn(-c2ccccc2)c1NC(=O)c1cc2nc(-c3ccco3)cc(C(F)(F)Cl)n2n1 [Mycro 3] | 1.11 ± 0.12 | 1.05 ± 0.045
27 | CC(C)n1nc(-c2cc3cc(O)ccc3[nH]2)c2c(N)ncnc21 [Torkinib (PP242)] | 1.12 ± 0.26 | 0.498 ± 0.12
28 | COc1cc(C(N)=O)ccc1NC(=O)[C@@H]1N[C@@H](CC(C)(C)C)[C@@]2(C(=O)Nc3cc(Cl)ccc32)[C@H]1c1cccc(Cl)c1F | 1.11 ± 0.11 | 0.953 ± 0.12
29 | O=C(CCCCCCNC(=O)c1cnc(N(c2ccccc2)c2ccccc2)nc1)NO [Ricolinostat (ACY-1215)] | 1.18 ± 0.013 | 1.17 ± 0.048
30 | O=c1c(O)c(-c2cc(O)c(O)c(O)c2)oc2cc(O)cc(O)c12 | 1.13 ± 0.12 | 1.08 ± 0.11
31 | COc1ccc(-c2cc(=O)c3c(O)cc(O)cc3o2)cc1 | 1.06 ± 0.089 | 1.06 ± 0.011
32 | Cc1ccc(NC(=O)c2ccc(CN3CCN(C)CC3)cc2)cc1Nc1nc(-c2cccnc2)cs1 [Masitinib (AB1010)] | 1.15 ± 0.12 | 1.01 ± 0.21
33 | O=C(COCC(=O)Nc1ccc(Cl)cc1C(=O)O)Nc1cccc(-c2ccoc2)c1 | 1.08 ± 0.18 | 1.13 ± 0.31
34 | Cc1ccc(-c2nn(C(C)(C)CNC(=O)c3ccncc3)c3ncnc(N)c23)cc1 | 0.896 ± 0.12 | 0.891 ± 0.18
35 | CCO[C@@H]1OC(=O)C[C@@H]1NC(=O)[C@@H]1CCCN1C(=O)[C@@H](NC(=O)c1ccc(N)c(Cl)c1)C(C)(C)C [Belnacasan] | 1.04 ± 0.17 | 1.07 ± 0.13
36 | C[C@H]1[C@@H](O)O[C@@H]2O[C@@]3(C)CC[C@H]4[C@H](C)CC[C@@H]1[C@@]24OO3 [Dihydroartemisinin] | 1.09 ± 0.03 | 0.899 ± 0.12
37 | COc1cc2c(cc1OC)[C@@H](Cc1ccc(O)c(Oc3cc4c(cc3OC)CCN(C)[C@@H]4Cc3ccc(O)cc3)c1)N(C)CC2 [Liensinine] | 1.06 ± 0.026 | 1.11 ± 0.2
38 | Cc1ncc([N+](=O)[O-])n1CCO [Metronidazole] | 1.08 ± 0.06 | 1.02 ± 0.042
39 | CC(C)=CCc1cc(-c2coc3cc(O)ccc3c2=O)ccc1O [Neobavaisoflavone] | 1.14 ± 0.21 | 1.24 ± 0.033
40 | Cc1ccc(-c2c(C#N)c(N)n3c(nc4ccccc43)c2C#N)cc1 | 1.06 ± 0.33 | 1.06 ± 0.29
41 | COc1ccc2[nH]cc(CCNC(C)=O)c2c1 | 1.11 ± 0.095 | 1.02 ± 0.065
42 | O=C([O-])c1ccccc1O.[Na+] [Sodium Salicylate] | 1.02 ± 0.077 | 1.13 ± 0.079

Row | SMILES | cell count (compound dose 1 µM) | cell count (compound dose 5 µM)
43 | Cc1ccc(C(=O)c2cc(O)c(O)c([N+](=O)[O-])c2)cc1 [Tolcapone] | 1.12 ± 0.2 | 1.17 ± 0.26
44 | C=CC[C@@H]1/C=C(\C)C[C@H](C)C[C@H](OC)[C@H]2O[C@@](O)(C(=O)C(=O)N3CCCC[C@H]3C(=O)O[C@H](/C(C)=C/[C@@H]3CC[C@@H](O)[C@H](OC)C3)[C@H](C)[C@@H](O)CC1=O)[C@H](C)C[C@@H]2OC [Tacrolimus (monohydrate)] | 1.15 ± 0.25 | 1.05 ± 0.038
45 | CCCC(=O)Nc1ncnc2c1ncn2[C@@H]1O[C@@H]2COP(=O)(O)O[C@H]2[C@H]1OC(=O)CCC [Bucladesine (calcium)] | 1.12 ± 0.33 | 1.02 ± 0.15
46 | COc1cc(OC)c(C=C2C(=O)Nc3ccccc32)c(OC)c1 | 1.16 ± 0.063 | 1.081 ± 0.0057
47 | O=Nc1c(-c2c(O)[nH]c3cc(Br)ccc23)[nH]c2ccccc12 [GSK 3 Inhibitor IX] | 0.893 ± 0.14 | 0.456 ± 0.036
48 | CO[C@@H]1[C@@H](OC(N)=O)[C@@H](O)[C@H](Oc2ccc3c(O)c(NC(=O)c4ccc(O)c(CC=C(C)C)c4)c(=O)oc3c2C)OC1(C)C [Novobiocin (Sodium)] | 1.24 ± 0.45 | 1.16 ± 0.18
49 | Clc1ccc(-c2csc(NN=C3CCCC3)n2)cc1 | 1.13 ± 0.18 | 1.27 ± 0.19
50 | CN(NC(=O)CC(=O)NN(C)C(=S)c1ccccc1)C(=S)c1ccccc1 [Elesclomol] | 0.8845 ± 0.0078 | 0.905 ± 0.089
51 | COc1ccc(C[C@@H]2c3cc(Oc4cc(C[C@@H]5c6cc(O)c(OC)cc6CCN5C)ccc4O)c(OC)cc3CCN2C)cc1 [Isoliensinine] | 1.12 ± 0.21 | 1.11 ± 0.37
52 | OCCN1CCN(CCCN2c3ccccc3Sc3ccc(Cl)cc32)CC1 | 1.07 ± 0.14 | 1.04 ± 0.049
53 | O=C(c1ccc(C(=O)N2CCC(N3CCCC3)CC2)c(Nc2ccccc2)c1)N1CCC(N2CCCC2)CC1 | 1.22 ± 0.055 | 1.06 ± 0.055
54 | O=c1c(-c2ccc(O)cc2)coc2cc(O[C@@H]3O[C@H](CO)[C@@H](O)[C@H](O)[C@H]3O)cc(O)c12 [Genistin] | 1.15 ± 0.14 | 1.1 ± 0.049
55 | CCC[C@H](N[C@@H](C)C(=O)N1[C@H](C(=O)O)C[C@@H]2CCCC[C@@H]21)C(=O)OCC [Perindopril (erbumine)] | 1.2 ± 0.31 | 1.15 ± 0.12
56 | O=c1c2ccccc2nc(/C=C/c2cccnc2)n1Cc1ccccc1 [RAD51 Inhibitor B02] | 1.2 ± 0.16 | 0.977 ± 0.06
57 | COC(=O)C1=CO[C@@H](O[C@@H]2O[C@H](CO)[C@@H](O)[C@H](O)[C@H]2O)[C@@H]2[C@@H](C)[C@@H](O)C[C@H]12 [Loganin] | 1.09 ± 0.22 | 1.05 ± 0.12
58 | COC1=CC(c2cc3ccccc3[nH]2)=N/C1=C\c1[nH]c(C)cc1C [Obatoclax (Mesylate)] | 1.19 ± 0.019 | 0.872 ± 0.093
59 | C[C@@H]1C[C@H](N)C[C@H](c2ccncc2NC(=O)c2ccc(F)c(-c3c(F)cccc3F)n2)C1 [PIM-447 (dihydrochloride)] | 1.1 ± 0.23 | 1.11 ± 0.19
60 | COCC[n+]1c2c(n(Cc3cnccn3)c1C)C(=O)c1ccccc1C2=O [Sepantronium (bromide)] | 0.209 ± 0.096 | 0.122 ± 0.045
61 | O=c1c(O[C@@H]2O[C@H](CO)[C@@H](O)[C@H](O)[C@H]2O)c(-c2ccc(O)cc2)oc2cc(O)cc(O)c12 [Astragalin] | 1.093 ± 0.0035 | 1.01 ± 0.088
62 | Cn1cc(C2=C(c3coc4ccc(F)cc34)C(=O)NC2=O)c2cc3c(cc21)OCO3 | 1.14 ± 0.29 | 1.08 ± 0.077
63 | CO[C@]1(CC[C@@H](C)CO[C@@H]2O[C@H](CO)[C@@H](O)[C@H](O)[C@H]2O)O[C@H]2C[C@H]3[C@@H]4CC=C5C[C@@H](O[C@@H]6O[C@H](CO)[C@@H](O[C@@H]7O[C@@H](C)[C@H](O)[C@@H](O)[C@H]7O)[C@H](O)[C@H]6O[C@@H]6O[C@@H](C)[C@H](O)[C@@H](O)[C@H]6O)CC[C@]5(C)[C@H]4CC[C@]3(C)[C@H]2[C@@H]1C [Methyl protodioscin] | 1.22 ± 0.16 | 0.495 ± 0.21
